# According to the BET-seq Pho4 binding data (Le et al. 2018):
# The other results are listed elsewhere or left out. Values were computed here from the reads of four pooled replicates and scatter widely.
# Target: T1, Pho4 (S. cerevisiae) (UniProt P07270)
# T1 sequence: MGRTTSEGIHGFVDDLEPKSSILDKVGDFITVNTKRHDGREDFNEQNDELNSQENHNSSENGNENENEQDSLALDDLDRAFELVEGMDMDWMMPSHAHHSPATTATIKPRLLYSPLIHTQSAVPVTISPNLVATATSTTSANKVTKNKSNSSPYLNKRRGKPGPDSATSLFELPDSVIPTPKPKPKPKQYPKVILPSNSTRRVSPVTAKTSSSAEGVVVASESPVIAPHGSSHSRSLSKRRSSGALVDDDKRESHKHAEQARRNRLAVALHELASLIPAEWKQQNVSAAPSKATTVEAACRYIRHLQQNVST
# Test: relative binding free energy (BET-seq); higher = weaker binding
# Settings: reference: library average
row,Sequence,relative binding free energy [kcal/mol]
1,TGCCTCACGTGAGGGT,0.27
2,TGTGGCACGTGCAGTG,-0.17
3,CAGATCACGTGTGGGG,0.24
4,CTGGGCACGTGGTAGG,-0.16
5,ATTCTCACGTGGAATG,0.24
6,TGTGACACGTGGTTAT,-0.02
7,GGATACACGTGCGGTT,-0.03
8,GTGGGCACGTGGATTT,0.13
9,GTTAGCACGTGGAAGA,0.21
10,GGTATCACGTGGGACT,-0.04
11,GTGGGCACGTGCGGTC,-0.11
12,AGTGTCACGTGGGATT,-0.01
13,TTAGACACGTGGTTTA,0.05
14,AAGGGCACGTGGTCGA,-0.3
15,GTCGTCACGTGTGTCG,0.26
16,CGGTACACGTGTTAGT,0.06
17,GTGTACACGTGTCGTA,0.18
18,TTGGACACGTGGGGAT,0.04
19,ATGAGCACGTGCGGGA,-0.23
20,CTGTTCACGTGCGTTG,0.21
21,GGGTTCACGTGTTCTA,0.3
22,GGGGACACGTGATTGG,0.22
23,AGTGTCACGTGAGTGC,0.04
24,GTAAACACGTGGGGTC,-0.04
25,CTGCGCACGTGGGTGA,-0.24
26,TGAATCACGTGCGGTT,0.05

row,Sequence,relative binding free energy [kcal/mol]
1,AGAAGCACGTGTGGGA,0.04
2,TCGAGCACGTGAGTGG,0.12
3,TGGATCACGTGGGGAT,0.1
4,GGTGACACGTGCAGGG,0.07
5,AAGTGCACGTGGGGGG,-0.14
6,GGGATCACGTGTGACA,0.43
7,GTAAACACGTGTGCGG,-0.03
8,GGGGCCACGTGTTAGG,0.02
9,GAAGGCACGTGGGTTC,-0.03
10,ATGGTCACGTGAGGGT,0.24
11,TTTGTCACGTGTCAGG,0.12
12,TTATTCACGTGGAGTG,0.29
13,TTGTTCACGTGAGAGA,0.32
14,ATGATCACGTGGCGTG,0.03
15,TCTTTCACGTGGGCTT,0.24
16,ATTGGCACGTGTAGTC,-0.04
17,TTATGCACGTGTCCTG,-0.1
18,AAGTGCACGTGGTGAG,0.05
19,GTTGTCACGTGTCTTT,0.31
20,AAATGCACGTGATGGG,0
21,TAGATCACGTGAGGGA,0.34
22,AAGTTCACGTGTGTCA,0.32
23,GGTGACACGTGCGAGT,0.07
24,ATATTCACGTGAAGTT,0.35
25,TATGCCACGTGTTGTT,-0.18
26,AGTGCCACGTGTGTAT,-0.03

row,Sequence,relative binding free energy [kcal/mol]
1,GTTTGCACGTGCTTCG,-0.11
2,GAGATCACGTGATTGG,0.17
3,GTTTACACGTGTTTAC,0.2
4,AATTTCACGTGAGTAA,0.39
5,TGTACCACGTGGTGGA,-0.14
6,GTTTACACGTGAGAGG,0.34
7,CTTCTCACGTGTAGTG,0.25
8,AGGTTCACGTGAATTG,0.2
9,AATTGCACGTGGGTTG,-0.19
10,TTCTTCACGTGGGGTC,0.15
11,TTGTCCACGTGTTTTC,0.17
12,GATGTCACGTGGTATC,0.14
13,TGTAGCACGTGGCTAT,-0.04
14,CCGGGCACGTGTATGT,-0.05
15,AGTGACACGTGTTTGC,-0.1
16,GCGTTCACGTGGACTG,0.44
17,TTTTGCACGTGGGCCG,-0.22
18,CAGTTCACGTGAGGGT,0.31
19,TAGATCACGTGTGTGG,0.06
20,TGTATCACGTGGTACA,0.16
21,GGATTCACGTGAAGAA,0.5
22,GTGGGCACGTGCTGAA,-0.08
23,AAGTCCACGTGAGGGG,0.12
24,TAGTACACGTGGAGTA,-0.01
25,TGGATCACGTGGGCTG,0.04
26,ATGAGCACGTGGTGCG,-0.12

row,Sequence,relative binding free energy [kcal/mol]
1,CGCGTCACGTGCGGGT,-0.08
2,TTGATCACGTGCATGG,0.07
3,GTGGACACGTGGTCAT,0.12
4,GGGGTCACGTGGCATG,0.08
5,TTGTGCACGTGTGAAG,0.14
6,TTGTACACGTGATGCG,0.13
7,TCAAACACGTGTTTTT,0.1
8,ATCTACACGTGGTATG,0.01
9,TGTCGCACGTGGTTGG,-0.11
10,GGACCCACGTGGTGGT,-0.12
11,GTATTCACGTGGTTGA,0.09
12,TGGGTCACGTGGACGC,0.12
13,TTGCGCACGTGTAAGT,0
14,ATCGACACGTGGGAGG,-0.07
15,GGTTTCACGTGGTATA,0.17
16,CTTTTCACGTGTTCGT,0.17
17,CGTTCCACGTGTGAGT,0.25
18,CGTTACACGTGTGGTT,0.1
19,ACGTGCACGTGCGGAT,-0.07
20,CGTGTCACGTGGGGCT,-0.04
21,ATGAGCACGTGCTTGG,-0.1
22,TTATGCACGTGAGTCG,0.16
23,AAAATCACGTGCTGTG,0.27
24,GAAGACACGTGGGTAG,-0.04
25,TGCGTCACGTGAATGT,0.38
26,GGAAGCACGTGTGGTT,0.04

row,Sequence,relative binding free energy [kcal/mol]
1,TGGGACACGTGAAGAG,0.38
2,AGATGCACGTGTGCGT,0.02
3,TTTTTCACGTGCGATC,0.44
4,TGGTGCACGTGAATCA,0.21
5,CTGGTCACGTGGGTGT,-0.07
6,TACTTCACGTGCGTTT,0.17
7,TTCATCACGTGGGGAG,0.14
8,ATTTACACGTGGTAGG,0.08
9,TGCCGCACGTGTGTTT,0.06
10,AATGGCACGTGTGGAT,-0.12
11,CTTATCACGTGAGTAT,0.3
12,GTGTTCACGTGGAGCT,0.3
13,GTGAACACGTGATGTC,0.36
14,ATTGCCACGTGGGGAT,-0.29
15,TGGGCCACGTGTAGCG,-0.09
16,CGATTCACGTGTAGGG,0.33
17,ATCCGCACGTGGGGGT,-0.25
18,GTCTGCACGTGGGTGA,-0.07
19,CTTGGCACGTGAGAAG,0.17
20,ATTGACACGTGTAGTG,0.04
21,AATTACACGTGTTAGT,0.09
22,AGTTGCACGTGGGTCG,-0.11
23,ATTATCACGTGTGGTC,0.2
24,TCGGGCACGTGGGACG,-0.28
25,ACATTCACGTGTTAGT,0.17
26,TGTGGCACGTGCATTG,-0.12

row,Sequence,relative binding free energy [kcal/mol]
1,TGTCGCACGTGCAGTG,-0.03
2,ACTTGCACGTGGTGTT,-0.15
3,GGCTGCACGTGTTTTG,0.12
4,TGTTCCACGTGGTCGG,0.05
5,ATAATCACGTGATTGA,0.1
6,TCGGTCACGTGGCGTG,-0.01
7,GTAGGCACGTGCCAGG,-0.14
8,TAAGTCACGTGGTCTG,0.02
9,GGTCTCACGTGGGTCT,0.04
10,TTTGTCACGTGTCGTC,0.11
11,TTTGACACGTGGTGTA,-0.19
12,TAATTCACGTGAAGAT,0.34
13,CAAATCACGTGGTGGT,0.03
14,TTTATCACGTGGAGCG,0.24
15,CGTGTCACGTGAATTG,0.37
16,TGTCGCACGTGGCGGG,-0.16
17,CGGATCACGTGAGTGT,0.34
18,GCGGTCACGTGGGGGC,0
19,TTATTCACGTGTAGGC,0.31
20,TTTTGCACGTGCACTG,0.04
21,GATAACACGTGGGGTA,0.02
22,TAACTCACGTGGTTGT,0.19
23,GGTAGCACGTGCTTAT,-0.07
24,AATCTCACGTGGGTGG,0.17
25,ACGTGCACGTGTCGGT,-0.14
26,TATCTCACGTGGTATG,0.21

row,Sequence,relative binding free energy [kcal/mol]
1,ATTAGCACGTGAGAAG,0.17
2,TGGGACACGTGTGTCA,0.21
3,GATGGCACGTGTGTAG,0.04
4,GGTTACACGTGTTTGC,0.15
5,TTAGTCACGTGGGTAT,0.04
6,TTCGTCACGTGTACGG,0.16
7,TGGGTCACGTGCTGGG,0.23
8,GTGTACACGTGTGGCT,0.09
9,TGGTGCACGTGATGAT,0.14
10,TATGTCACGTGAATTT,0.3
11,GGTTGCACGTGGATAA,0.19
12,AGTCGCACGTGAGGGG,0.11
13,GTGATCACGTGGACGT,0.17
14,AACTTCACGTGTTTTG,0.3
15,TACGGCACGTGATGTA,0.11
16,TGGGGCACGTGGCATC,-0.23
17,GAAGACACGTGTGATT,0.23
18,GTGAGCACGTGCTGTT,-0.12
19,AGGTACACGTGGTTAG,-0.05
20,AGGGGCACGTGAATGC,0.11
21,CGGTTCACGTGATGGT,0.39
22,GCTGACACGTGGGAGG,-0.11
23,TAATTCACGTGTGTGT,0.27
24,TATCTCACGTGTGGGC,0.33
25,CAAATCACGTGGGTGG,0.02
26,TTAGGCACGTGGGTGG,-0.17

row,Sequence,relative binding free energy [kcal/mol]
1,CGGGTCACGTGGCTTT,-0.01
2,GGGTACACGTGTAGGC,0.29
3,CTTTGCACGTGTCGTT,-0.01
4,TGGTACACGTGGGTCA,-0.3
5,GCGAGCACGTGGGTGG,-0.16
6,GGAATCACGTGATAGG,0.34
7,CATGGCACGTGTAGTT,-0.01
8,CTTTGCACGTGGCGTT,-0.03
9,TATGGCACGTGATTTC,0.03
10,GAAGCCACGTGGGGTG,-0.17
11,GTGTGCACGTGAAAGC,0.21
12,CGAGACACGTGGGGTA,-0.07
13,TATGACACGTGCCGGT,0.03
14,CTATGCACGTGGGGGT,-0.19
15,TATTTCACGTGGTAGC,0.32
16,TAGGTCACGTGTCAAT,0.11
17,CGTTACACGTGTTTAA,0.28
18,TTATTCACGTGTATTG,0.2
19,AGAGGCACGTGTGGGG,-0.08
20,TTAGGCACGTGTGCCA,0.03
21,TGATTCACGTGTATGG,0.27
22,ATGCACACGTGTGTTT,-0.07
23,AAACACACGTGGTGGG,-0.1
24,ATATTCACGTGCGTAG,0.12
25,GGAGACACGTGGGTTT,-0.04
26,TTTATCACGTGTGCGG,0.08

row,Sequence,relative binding free energy [kcal/mol]
1,AGTAACACGTGGAGGT,0.02
2,CGGTTCACGTGGGGTC,0.18
3,AAGCGCACGTGAGGTT,0.19
4,ACCTTCACGTGGGGGG,0.19
5,AGGTGCACGTGTTGTG,0.05
6,GGTTGCACGTGGGTGG,-0.09
7,TCGTTCACGTGGAAGT,0.4
8,TGGAGCACGTGCACGT,-0.01
9,GTTGTCACGTGTACGA,0.13
10,TGGTGCACGTGGGGCA,-0.1
11,CGAGGCACGTGTTAGG,-0.08
12,AGACGCACGTGGGTTG,-0.18
13,AAAGGCACGTGAAAGT,0.18
14,GGGTGCACGTGCGTGT,-0.04
15,CCGGTCACGTGGGTGT,-0.07
16,TGACTCACGTGGAGTT,0.32
17,CTGGACACGTGTGGTG,0.1
18,CGGAGCACGTGTTTAA,0.04
19,TGTAACACGTGAGTTA,0.22
20,CGGATCACGTGGTTTG,-0.12
21,AGTGGCACGTGGAGGA,-0.09
22,GTGTGCACGTGGCCAG,-0.2
